Values of other authors as cited in patent US5411733A (priority 1992, dated 1995).

System: CMV
Conditions: cited from earlier work

C=CC[C@@H]1/C=C(\C)C[C@H](C)C[C@H](OC)[C@H]2O[C@@](O)(C(=O)C(=O)N3CCCC[C@H]3C(=O)O[C@H](/C(C)=C/[C@@H]3CC[C@@H](O)[C@H](OC)C3)[C@H](C)[C@@H](O)CC1=O)[C@H](C)C[C@@H]2OC [FK 506]
influence on CMV growth: no or slight inhibitory influence on CMV growth
